# Assay results reported in article PMC12136788.
# This is one part of the list.
# T1: UNK ZnF1-3 (human, UniProt Q9C0B0 31-174)
# T1 sequence: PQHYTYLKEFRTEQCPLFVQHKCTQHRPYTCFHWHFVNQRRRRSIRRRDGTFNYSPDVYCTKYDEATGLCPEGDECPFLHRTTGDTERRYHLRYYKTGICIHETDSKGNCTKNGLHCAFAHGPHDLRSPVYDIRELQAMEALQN
# B1: chr1:174973770:174973771:+_ENSG00000116161_ENST00000406752|hu_mus|motif|central (ssRNA)
# RNA: GGGAGUUCUACAGUCCGACGAUCGAGUUCCGUCUCAAUCUUGGACUUUUCACUUGUAAGAGUAUCACGUAGUCUUUUCCGGGUGGACUUUUCCAGCAAUACUUUGACCUCUUCUAGGUCUUUCUGCAACUCUUCCAAAACGGACAACAGAGGAUUGAGCAUCA
# B2: chr2:15768762:15768763:+_ENSG00000079785_ENST00000233084|hu_hu|motif|central (ssRNA)
# RNA: GGGAGUUCUACAGUCCGACGAUCGGGCAGAGUGACAUUUAUAACAUAAGGAACACCGUGGAUAUCAAUUCCUCUAGCAGCGGCAUCUGUGCAAAUCAAGAAUCUUACAUCUCCUUUCUUAAAUCUUUCCAAGUUUUGCUUUCUCAACAGAGGAUUGAGCAUCA
# B3: 169811557_169811677_2132_CDS_ENSG00000000460_ENST00000359326|human|control|control (ssRNA)
# RNA: GGGAGUUCUACAGUCCGACGAUCUUUAAUGUUUAAAAAAGCCCAAAGCUGACUCACAACUUCGAUAAUUGCAGUUUGUUUUCCUGUAUCCAAAGCUUCACCAGCAGAAUUACAUACUGCAAGCAAAGCAGACAGUACUGUGUUCAACAGAGGAUUGAGCAUCA
# B4: chr21:34901235:34901236:-_ENSG00000159131_ENST00000381815|hu_mus|FALSE|FALSE (ssRNA)
# RNA: GGGAGUUCUACAGUCCGACGAUCCAUGCCGUCUACUGCUCUCUGAAGAAUAGUGUUCUUAAUUUUUACUAACAAGUCCUUAGAAACCUGAGGUGCUGGGCAGUAGGCUCCCAUCCCCCCGGUGUUGGGGCCUUCGUCUCCAUCCAACAGAGGAUUGAGCAUCA
# B5: chr16:38184571:38184572:+_ENSMUSG00000022812_ENSMUST00000023507|mus_mus|motif|central (ssRNA)
# RNA: GGGAGUUCUACAGUCCGACGAUCCAGCUGAUACAUAUACAACUUGACAUAGAUCACAGGGAGUGUCUGCUUGGCUCGACGGUAGUGUCUGGCGACUCUGUACACUGUCUCCGGAACAUAGUCCAGCACCAGGUUAAGGUAGACCAACAGAGGAUUGAGCAUCA
# B6: chr6:117881578:117881579:-_ENSG00000047932_ENST00000052569|hu_hu|motif|central (ssRNA)
# RNA: GGGAGUUCUACAGUCCGACGAUCUUUAAUGUAGAAGAUGCCAUCUUUAUUUACAGGCUAAUAAAAAAAUAUUAAACUCAACGGGAUAUAAUACAUUAUCAUAAAUGCAAUAGAUUUGAGGCCAACCAUAAGUGUAAGACUGGACAACAGAGGAUUGAGCAUCA
# B7: chr1:66462064:66462065:+_ENSMUSG00000015222_ENSMUST00000114013|mus_mus|FALSE|FALSE (ssRNA)
# RNA: GGGAGUUCUACAGUCCGACGAUCGACCUCACCCUUCUCAUCCGUGGAUAAAUCAGCUUCGGAAACUGGAGGCGGGCAAGGGAUUUCUACAGACAGCUUGAGGGCAACUUCAUCUUGGAUCAGUGAUGUCUCUGGAGAUGUUUCCAACAGAGGAUUGAGCAUCA
# B8: chr14:21838049:21838050:-_ENSG00000092201_ENST00000216297|hu_mus|FALSE|FALSE (ssRNA)
# RNA: GGGAGUUCUACAGUCCGACGAUCGUUGAGCUCACCGUCCUCUUUCACAGCAAUGGUGUAUGCCACAACAGCGCUGAUGUCUACUUUGUCAAAGCCCUCCUUGUUGAGACAAUCACUCCAGCUCUUCAUGAACUCUCCAGGGAACAACAGAGGAUUGAGCAUCA
# B9: chr14:76904430:76904431:+_ENSMUSG00000022010_ENSMUST00000022587|mus_mus|mus_mus_mus_hu_True|38_68 (ssRNA)
# RNA: GGGAGUUCUACAGUCCGACGAUCUGCAGCCAAAAACACCCUCGUGGAAAAAAAGAGGGAACACCAGCAGCCUGGUUUAAGCUAGAUAAAAUCUUCUAGCUGUCUGCAGCCCAGGGAGAAACAGAAAACGGCAGCCCUAAUUUACAACAGAGGAUUGAGCAUCA
# B10: chr18:32579733:32579734:+_ENSMUSG00000024381_ENSMUST00000025239|mus_mus|motif|central (ssRNA)
# RNA: GGGAGUUCUACAGUCCGACGAUCUUUAUGGAAGUUUUCCUCCAGACCCGCGAUGCUCUGGAACGUGUUGACAUAGAAACCGGCACGGCUGUUCCACAGGGAUGGCAGCUCCUCCUGCAGAUCCACGUUCAUCUCCUCGAACACCAACAGAGGAUUGAGCAUCA
# B11: chr7:140404665:140404666:+_ENSG00000090266_ENST00000247866|hu_hu|hu_hu_hu_mus_False|1_38 (ssRNA)
# RNA: GGGAGUUCUACAGUCCGACGAUCUGCUCCUACUCGUCCAGAGAGUUUACAGUGUCAGUCCUCGUCAUCAGGAGGGAUUCCCAGUUCUUCAUCUGUCCACUGGGAAGGAUCUGGAUAUGAAAAGUGACCCAGCACAGCUUCUGACAACAGAGGAUUGAGCAUCA
# B12: chr4:43015417:43015418:-_ENSMUSG00000028453_ENSMUST00000030165|mus_mus|motif|central (ssRNA)
# RNA: GGGAGUUCUACAGUCCGACGAUCAAAGGGUAGGAAUGGGGAUUUUUAUGAGGAACUGCAGUUUAGUCCCCAGAAUCCAACCGGCCAAAAAGACAAUGGGAAGGAAGGGGGAGUUAGGGAGACAGGGAAGGCAGACAGAAGACGCAACAGAGGAUUGAGCAUCA
# B13: 74397459_74397579_1786_3pUTR_ENSMUSG00000054814_ENSMUST00000068058|mouse|control|control (ssRNA)
# RNA: GGGAGUUCUACAGUCCGACGAUCUACCAAUGACAGCCUUACCUCACCUUGCUCCAAUGUGGAGGAGGAUUUUGGCAUCUAGGCCACUCACUUUUAAACAUUUUCACUUGCACAAACUUAAAGCUAUGGUUGCAGCCCUAACAGCAACAGAGGAUUGAGCAUCA
# B14: chr18:32917252:32917253:-_ENSG00000172466_ENST00000399061|hu_hu|motif|central (ssRNA)
# RNA: GGGAGUUCUACAGUCCGACGAUCUUCUUAAACUUUCACAACAUUCAGAAGUUUUUCUGCAUUGUGUCUUCUCUGAUGUCGGAAAAGAUUUGAGCUUUGACUAUACGAUUUCCCACACUGAACGCAUUCAUAAGGUUUCUCCCCCAACAGAGGAUUGAGCAUCA
# B15: chr12:16048344:16048345:+_ENSG00000023734_ENST00000419869|hu_hu|hu_hu_hu_mus_True|18_18 (ssRNA)
# RNA: GGGAGUUCUACAGUCCGACGAUCAGAUCGUCCAUAAGUAAUAACCAAAAUCUCUCCUUCAGGAAUAUACUCCAUGCUGCUAACAGACAUAUUAAAAUUCAGAGAUUUCACUUCUGUCAUAGUAGCAUGAUCCCAGAGCCGAACCAACAGAGGAUUGAGCAUCA
# B16: chr10:112343607:112343608:+_ENSG00000108055_ENST00000361804|hu_hu|FALSE|FALSE (ssRNA)
# RNA: GGGAGUUCUACAGUCCGACGAUCUUCUAUUUUUUCAAGCAGCUUCUGCCUCUCUUUUAAUAAACGUUUCCUUUGUUCACUAUUGCCUGCUAGUUCAUCUUGUAAAUCCUUGGCUUUAAGCUCCAACUUAGUCCUCUGCUUAAUCAACAGAGGAUUGAGCAUCA
# B17: chr4:115894766:115894767:+_ENSMUSG00000028698_ENSMUST00000030464|mus_hu|mus_mus_mus_hu_True|88_88 (ssRNA)
# RNA: GGGAGUUCUACAGUCCGACGAUCUUCCACACGGAAAUGUACUUCGGGUUUCCAACGGGCCAGUACCAGUCCGGCCAAACUACCCGAACAGGGUCCUCCCCCUCUCUCCUACAGAACACAACAAAAUGCCCCCGAACUUUCAAGCAACAGAGGAUUGAGCAUCA
# B18: chr17:29398750:29398751:-_ENSMUSG00000024007_ENSMUST00000024802|mus_mus|FALSE|FALSE (ssRNA)
# RNA: GGGAGUUCUACAGUCCGACGAUCGUCGCCGCCUUGGAUCAUGAAGUCCUUGAUGAUCCUGUGGAACUUGGUGCCAUUGUAGUAGCCCCGCCGAGCCAGCUCCGCGAAGUUCUUGCAGGUCUUGGGCGCAUGCUUCCAGUAUAGCAACAGAGGAUUGAGCAUCA
# B19: chr17:57756778:57756779:+_ENSG00000141367_ENST00000269122|hu_mus|FALSE|FALSE (ssRNA)
# RNA: GGGAGUUCUACAGUCCGACGAUCACUACCCCACAAUUCUGGAUCCUUUCGACGGACUAAGUAGCGAGAAAGGCUUUUGAAGAGGGAAUUCUCAUUGCAAACAUUGAUGAGCUCCAGGUCACACUGGCCACGUUCAUAAGCAACCAACAGAGGAUUGAGCAUCA
# B20: chr9:44212477:44212478:-_ENSMUSG00000032112_ENSMUST00000034623|perfect_dup|FALSE|FALSE (ssRNA)
# RNA: GGGAGUUCUACAGUCCGACGAUCUGGAUUCUUGAGGGCAAAGUCUGAGUAAAUCUCAUAAAUCUUUCGGAGAAGAGAAUCUAUUCCAGCUUGCCUAGGAUCUGCUAGAACCACAAACUUGAUCCCUGUCAGUGUCUGGUAGCACAACAGAGGAUUGAGCAUCA
# B21: chr2:198351390:198351391:-_ENSG00000144381_ENST00000345042|hu_hu|hu_hu_hu_mus_False|8_68 (ssRNA)
# RNA: GGGAGUUCUACAGUCCGACGAUCUCAUUCCCACCCUCCACAGAAAGGCUGCUUCUGAACUCUCAUGGUGGUGGCAAGCGCUACAGUCCUGAUGCUCACAGAACAGUAGAGAUGCCUCAGUGAUUUAUUAAGUUGAAAGGACACCAACAGAGGAUUGAGCAUCA
# B22: chr5:124080617:124080618:-_ENSMUSG00000049550_ENSMUST00000063905|mus_mus|motif|central (ssRNA)
# RNA: GGGAGUUCUACAGUCCGACGAUCCUCCAUCUCUUUAGCAUGAGCAGACCGCUCAGAGUCCUGUUUACUCUGUAAACUUUCGGUUUCGUGCUGGUAAUCUAGUCUCAGUCUCUCUAUCUGUGUCUUUAACUCAGCAAAUUCAGCCAACAGAGGAUUGAGCAUCA
# Target: T1, UNK ZnF1-3
# Assay: nsRBNS (natural sequence RNA bind-n-seq); RBNS binding buffer (assumed for nsRBNS): 25 mM Tris pH 7.5, 150 mM KCl, 3 mM MgCl2, 0.01% Triton X-100, 500 ug/ml BSA, 20 U/ml SUPERase-In, 4 C; UNK is unkempt and MSI1 is Musashi-1; names of the RNAs are library labels; protein concentration not given here; high values mean tight binding
row,Binder,binding signal [enrichment R]
1,B1,0.531
2,B2,1.42
3,B3,1.12
4,B4,0.927
5,B5,0.843
6,B6,1.5
7,B7,1.01
8,B8,1.33
9,B9,2.48
10,B10,0.625
11,B11,1.36
12,B12,1.67
13,B13,0.546
14,B14,0.743
15,B15,0.977
16,B16,0.394
17,B17,0.994
18,B18,0.593
19,B19,1.1
20,B20,0.588
21,B21,1.49
22,B22,0.732
